Reference: PubChem BioAssay AID652154 (Broad Institute, 2013)
Hit rate of the full screen: of about 360,000 compounds, about 4,200 (1.2%) were called active. This list was built around the results that the source calls inconclusive (neither active nor inactive); the mix of calls is not that of the screen.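 Rule for the calls: active = mean replicate inhibition at least 60% with every replicate also reaching 60%; inconclusive = only one of the two criteria is met; inactive = mean below 60% and not all replicates reaching 60%.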

assay: inhibitors of PAX8-driven TPO luciferase reporter, primary screen, RMG-I cells, single concentration (AID 652154); conditions: SteadyGlo, 24 h, at 12.6 µM, active compounds read high;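 note: luciferase light reporting Pax8 driven TPO promoter activity; plate controls were median of neutral control wells for no effect and mitoxantrone controls for full effect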

inhibition, inconclusive:
C[C@H](O)[C@@H]1C(=O)N2CCc3c([nH]c4cccc(-c5ccccc5)c34)[C@@H]2C[C@@H]1N(C)C(=O)NC1CCCCC1 64.2%
CCOC(CCn1c(SCc2cccc([N+](=O)[O-])c2)nc2ccccc2c1=O)OCC 62%
C[C@@H]1CN([C@@H](C)CO)C(=O)Cc2cc(N(C)C)ccc2O[C@@H]1CN(C)Cc1ccc(Oc2ccccc2)cc1 63%
Cc1ccc(S(=O)(=O)Nc2ccc3c(c2)C(=O)N([C@H](C)CO)C[C@H](C)[C@H](CN(C)S(=O)(=O)c2cccs2)OCCCC[C@H](C)O3)cc1 61.2%
O=C(C1CCC1)N1CC(=O)N2[C@@H](CO)[C@@H](c3ccc(C#Cc4cccc(F)c4)cc3)[C@@H]2C1 62.8%
Cc1ccc(C2C(C#N)=C(N)Oc3n[nH]c(-c4cccnc4)c32)o1 (configuration not stated) 61.2%
CN1CCN(C(c2ccc(C(F)(F)F)cc2)c2cc(Cl)c3cccnc3c2O)CC1 (configuration not stated) 60.3%
Cc1cc(SCC(=O)N/N=C/c2ccc(O)c(O)c2O)c(C)cc1Br 60.7%
O=C(Nc1cccc(F)c1)N1CCCCN2[C@H](CO)[C@@H](c3ccc(C#CC4CC4)cc3)[C@@H]2C1 75.8%
Cc1cccc(S(=O)(=O)N2CC[C@@H]3[C@@H](CO)N(C)c4ccc(-c5ccc(C#N)cc5)cc4[C@@H]32)c1 67.8%
CCc1c(C)nc(N)nc1Cl 62.6%
Clc1ccc(-c2c[n+](Cc3cccc(Cl)c3)c3n2CCC3)cc1 62%
Cc1ccc(S(=O)(=O)Nc2ccc3c(c2)C(=O)N([C@H](C)CO)C[C@@H](C)[C@H](CN(C)C(=O)Nc2ccc(F)cc2)OCCCC[C@H](C)O3)cc1 62.3%
CCCC(=O)Nc1ccc2c(c1)C(=O)N(C)[C@@H]1CC[C@@H](CC(=O)N3CCc4ccccc4C3)O[C@H]1CO2 62.4%
Cc1ccc(C)c(OCC(=O)Nc2ccc(C(=O)O)cc2NC(=O)COc2cc(C)ccc2C)c1 60.8%
C/C=C/c1ccc([C@H]2[C@@H](C#N)N(C(=O)NC3CCCCC3)[C@H]2CO)cc1 63.8%
C[C@@H]1CN([C@@H](C)CO)C(=O)c2cc(NC(=O)Nc3ccc(C(F)(F)F)cc3)ccc2O[C@@H](C)CCCCO[C@H]1CN(C)Cc1ccc(C(F)(F)F)cc1 61.7%
C[C@@H]1CN([C@H](C)CO)C(=O)Cc2cc(NC(=O)NC3CCCCC3)ccc2O[C@@H]1CN(C)CC1CCCCC1 68.6%
C[C@@H]1CCCCO[C@@H](CN(C)Cc2ccc(C(F)(F)F)cc2)[C@H](C)CN([C@@H](C)CO)C(=O)c2cc(NC(=O)Nc3ccccc3)ccc2O1 61.9%
NS(=O)(=O)c1ccc(CCNc2nn3c(-c4cccc(OC(F)(F)F)c4)cnc3s2)cc1 64.7%
COc1ccccc1NC(=O)Nc1ccc2c(c1)C(=O)N(C)C[C@@H](OC)[C@H](C)CN(Cc1ccccc1Cl)[C@H](C)CO2 61.7%
COc1cccc(S(=O)(=O)N2CCCCN3[C@@H](CO)[C@@H](c4ccc(C#CC5CC5)cc4)[C@@H]3C2)c1 65.8%
C[C@H](CO)N1C[C@H](C)[C@H](CN(C)C(=O)Cc2ccccc2)Oc2cc(C#CC3CCCC3)ccc2S1(=O)=O 61.9%
CC(=O)N1CCCCN2[C@H](C1)[C@H](c1ccc(-c3ccc(C)cc3)cc1)[C@@H]2CO 63.4%
Oc1cc(NCCN2CCOCC2)cc2cccnc12 64.3%
CN(C)c1ncnc2c1ccn2C1OC(CO)C(O)C1O (configuration not stated) 61.7%
CN(C)S(=O)(=O)c1cccc(NC(=O)CSc2nc3c(cc2C#N)C(=O)CC(C)(C)C3)c1 62.1%
COc1ccc2nc(-c3ccc(N)cc3)[nH]c2c1 67.3%
O=C(c1ccccc1)c1cc(Cl)ccc1N1C(=O)C=CC1=O 68.4%
C/C(=C\[C@@H](NP(=O)(c1ccccc1)c1ccccc1)c1ccccc1)CO[Si](c1ccccc1)(c1ccccc1)C(C)(C)C 65.2%
CCCCCc1cc(=O)oc2c(C(CCN(CC)CC)c3ccc(N(C)C)cc3)c(OC)cc(OC)c12 (configuration not stated) 60.9%
CN1CCc2cccc3c2[C@H]1Cc1ccc(O)c(O)c1-3 60.4%
c1cnc2c(c1)ccc1cccnc12 64.1%
N#C[C@@H]1[C@H](c2ccc(C#Cc3ccccc3F)cc2)[C@H](CO)N1C(=O)C1CCCCC1 62.6%
Cc1ccc2c(c1)c(/C=C/c1cc[n+](C)cc1)c(C)n2C 62.8%
Cn1nc([N+](=O)[O-])nc1S(C)(=O)=O 60.9%
Cc1ccc(/C=N/NC(=O)c2n[nH]c3c2CCCC3)cc1 62.3%
CCN(CC)C1Oc2cc3c(cc2C(c2cc(OC)c(OC)c(OC)c2)C1C)OCO3 (configuration not stated) 63.6%
COc1ccc(S(=O)(=O)Nc2ccc3c(c2)CC(=O)N([C@@H](C)CO)C[C@H](C)[C@@H](CN(C)Cc2ccc(-c4ccccc4)cc2)O3)cc1 63.8%

inhibition, inactive:
Cc1ccc(C(C)C)c(OCC(=O)NNC(=O)Cn2[nH]c(=O)c3ccccc3c2=O)c1 -1.61%
CC(=O)c1c(C)[nH]c(C(=O)OCCOc2ccccc2)c1C 17.9%
CCOC(=O)c1cc([N+](=O)[O-])sc1NC(=O)c1ccc(S(=O)(=O)N2CC3(C)CC2CC(C)(C)C3)cc1 (configuration not stated) 27%
CN1CCN(C(=O)C[C@@H]2CC[C@H]3[C@@H](COC[C@H](O)CN3Cc3ccc(Oc4ccccc4)cc3)O2)CC1 7.75%
Nc1c(C(=O)N2CCCCC2)sc2nc3c(cc12)CCCC3 -226%
CN(C)CC(=O)Nc1ccc2c(c1)[C@@H]1C[C@H](CC(=O)NCc3ccncc3)O[C@H](CO)[C@@H]1O2 -11.5%
C#CC[N+]1(CC#Cc2cccc(C)c2)CCCCC1 25.4%
C[C@@H]1CCCCO[C@@H](CN(C)Cc2ccncc2)[C@H](C)CN([C@@H](C)CO)C(=O)c2cc(NC(=O)c3ccccc3)ccc2O1 7.54%
C[C@H](CO)N1C[C@H](C)[C@@H](CN(C)C(=O)Nc2cccc3ccccc23)OCCCC[C@H](C)Oc2ccc(NS(=O)(=O)c3ccc(Cl)cc3)cc2C1=O 42.5%
COc1ccccc1-c1cc(C(=O)N/N=C/c2cccs2)c2ccccc2n1 32.5%
O=C(CCCN1C(=O)/C(=C/c2ccccc2Cl)SC1=S)NNC(=O)c1ccc(Cl)cc1Cl 21.2%
COc1ccc2c3c([nH]c2c1)[C@@H](CO)N(C(=O)C1CCCC1)CC31CCN(C)CC1 0.376%
C[C@H](CO)N1C[C@H](C)[C@@H](CN(C)C(=O)Nc2ccccc2)Oc2ccc(NC(=O)NC3CCCCC3)cc2CC1=O -24.1%
CO[C@@H]1CN(C)C(=O)c2cc(NC(=O)C3CC3)ccc2OC[C@H](C)N(Cc2cccc(F)c2)C[C@H]1C -1.94%
Cc1ncc([N+](=O)[O-])n1CC(=O)Nc1ccccc1 5.09%
CO[C@H]1CN(C)C(=O)c2cc(NS(=O)(=O)c3cn(C)cn3)ccc2OC[C@H](C)N(C)C[C@H]1C 3.18%
Cc1ccc(-c2nc(-c3ccccc3)no2)c(Cl)c1 -11.7%
O=C(C[C@H]1CC[C@H]2[C@@H](COC[C@@H](O)CN2Cc2ccccc2)O1)NCCCN1CCOCC1 -0.43%
C[C@@H]1CN([C@H](C)CO)C(=O)c2cccc(NC(=O)Nc3ccc(F)cc3)c2O[C@H]1CN(C)Cc1ccccc1 4.13%
Cc1ccc(CNC(=O)CSc2nnc3n2CCCCC3)cc1 -0.442%

inhibition, active:
C[C@H](CO)N1C[C@H](C)[C@@H](CN(C)S(=O)(=O)c2ccc(Cl)cc2)OCCCC[C@H](C)Oc2ccc(NS(=O)(=O)c3ccc(F)cc3)cc2C1=O 84.2%
COC(C(=O)C(O)C(C)O)C1Cc2cc3cc(OC4CC(OC5CC(O)C(O)C(C)O5)C(O)C(C)O4)c(C)c(O)c3c(O)c2C(=O)C1OC1CC(OC2CC(OC3CC(O)C(OC)C(C)O3)C(O)C(C)O2)C(O)C(C)O1 (configuration not stated) 99.8%
CCC1(O)CC2CN(CCc3c([nH]c4ccccc34)C(C(=O)OC)(c3cc4c(cc3OC)N(C=O)C3C(O)(C(=O)OC)C(OC(C)=O)C5(CC)C=CCN6CCC43C65)C2)C1 (configuration not stated) 83.1%
C[C@@H]1CCCCO[C@@H](CN(C)C(=O)NC2CCCCC2)[C@H](C)CN([C@H](C)CO)C(=O)c2cc(NS(=O)(=O)c3ccc(Cl)cc3)ccc2O1 89.7%
COCC(=O)OC1CCn2c1nc1c2C(=O)C(C)=C(NC(C)=O)C1=O (configuration not stated) 115%
COc1ccc(C2=C(C=C(C#N)C#N)C(c3ccccc3C)c3ccccc3O2)cc1OC (configuration not stated) 64.8%
C[C@@H]1CN([C@@H](C)CO)C(=O)c2cc(NC(=O)NC3CCCCC3)ccc2O[C@@H](C)CCCCO[C@H]1CN(C)Cc1ccc(C(F)(F)F)cc1 78.5%
CC(=O)Nc1ccc(S(=O)(=O)c2ccnc3cc(Cl)ccc23)cc1 110%
